Test results reported in US8906908B2, “Hydroxybupropion analogues for treating drug dependence” (priority 2010, dated 2014).
For part of these data: At least one read-out could not be matched to a standard name with certainty. Some results were stated once for a whole list of compounds, not compound by compound.

Columns and labels:
[1] = target: T1, α3β4*-nAChR (Homo sapiens, UniProt P30926+P32297); test: 86Rb+ efflux nAChR functional assay, SH-SY5Y cells; assay type: cell-based; conditions: read-out: nAChR inhibition IC50 α3β4±; EC80-EC90 carbamylcholine; SH-SY5Y; parentheses = S.E.M. as multiplication/division factor
T1 construct: other: EC80-EC90 carbamylcholine; SH-SY5Y; parentheses = S.E.M. as multiplication/division
T1 sequence (P32297 32-505): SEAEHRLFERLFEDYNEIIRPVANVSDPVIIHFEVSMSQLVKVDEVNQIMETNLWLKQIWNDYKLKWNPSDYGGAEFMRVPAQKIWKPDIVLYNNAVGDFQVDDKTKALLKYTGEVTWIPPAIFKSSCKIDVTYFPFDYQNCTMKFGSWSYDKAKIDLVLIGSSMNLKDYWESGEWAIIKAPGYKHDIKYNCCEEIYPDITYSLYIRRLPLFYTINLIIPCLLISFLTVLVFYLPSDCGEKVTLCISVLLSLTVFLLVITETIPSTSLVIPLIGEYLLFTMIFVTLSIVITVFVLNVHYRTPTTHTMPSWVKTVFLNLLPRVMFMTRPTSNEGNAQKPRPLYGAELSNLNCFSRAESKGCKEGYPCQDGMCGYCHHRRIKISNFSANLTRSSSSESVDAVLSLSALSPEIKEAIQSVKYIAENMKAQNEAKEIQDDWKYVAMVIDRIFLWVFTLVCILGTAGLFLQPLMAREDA
T1 sequence (P30926 22-498): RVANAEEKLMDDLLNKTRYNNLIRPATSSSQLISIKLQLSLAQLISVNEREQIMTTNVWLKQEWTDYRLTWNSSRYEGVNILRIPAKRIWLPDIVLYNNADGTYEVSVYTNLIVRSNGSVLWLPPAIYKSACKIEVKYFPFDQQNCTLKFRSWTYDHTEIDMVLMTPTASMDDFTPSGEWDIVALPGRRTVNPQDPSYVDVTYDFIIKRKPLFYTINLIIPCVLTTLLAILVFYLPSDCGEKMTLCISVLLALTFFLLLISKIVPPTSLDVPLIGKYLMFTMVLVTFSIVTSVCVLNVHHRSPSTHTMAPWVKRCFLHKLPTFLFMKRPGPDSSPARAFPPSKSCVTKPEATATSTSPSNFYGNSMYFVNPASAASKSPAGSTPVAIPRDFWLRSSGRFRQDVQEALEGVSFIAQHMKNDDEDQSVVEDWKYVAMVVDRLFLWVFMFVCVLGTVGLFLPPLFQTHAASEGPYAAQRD
Source text: (§1) Cell Lines and Culture: Human embryonic kidney (HEK-293) cells stably expressing human DAT, NET or SERT were maintained as previously described in Eshleman, A. J.; Carmolli, M.; Cumbay, M.; Martens, C. R.; Neve, K. A.; Janowsky, A., J. Pharmacol. Exp. Ther. 1999, 289, (2), 877-885. Use was made of several human cell lines that naturally or heterologously express specific, functional, human nAChR subtypes. Cells of the TE671/RD line naturally expresses muscle-type nAChR (a1β1γδ- or α1*-nAChR), and SH-SY5Y neuroblastoma cells naturally expresses autonomic α3β4*-nAChRs (containing α3, β4, probably α5, and sometimes β2 subunits). Different clones of SH-EP1 epithelial cell lines have been engineered to heterologously express either α4β2-nAChR, which are thought to be the most abundant, high affinity nicotine-binding nAChR in mammalian brain, or α4β4-nAChR, another possible brain nAChR subtype (SH-EP1-hα4β2 or α4β4 cells, respectively). These cells were maintained as low passage number (1-26 from our frozen stocks) cultures to ensure stable expression of native or heterologously-expressed nAChR as previously described (see Lukas, R. J.; Fryer, J. D.; Eaton, J. B.; L., G. C., Some methods for studies of nicotinic acetylcholine receptor pharmacology, in Nicotinic receptors and the Nervous System, Levine, E. D., Ed. CRC Press: Boca Raton, 2002; pp 3-27, incorporated herein by reference in its entirety). Cells were passaged once weekly by splitting just-confluent cultures 1/300 (TE671/RD), 1/5 (SH-SY5Y), or 1/20 (transfected SH-EP1) in serum-supplemented medium to maintain log-phase growth.
(§2) After cells had adhered (generally overnight, but no sooner than 4 h later), the medium was removed and replaced with 250 μL per well of complete medium supplemented with ˜350,000 cpm of ^86Rb^+ (PerkinElmer Life and Analytical Sciences, Boston, Mass.) and counted at 40% efficiency using Cerenkov counting (TriCarb 1900 liquid scintillation analyzer[…]; PerkinElmer Life Sciences).
(§3) After at least 4 h and typically overnight, ^86Rb^+ efflux was measured using the “flip-plate” technique. See Lukas, R. J.; Fryer, J. D.; Eaton, J. B.; L., G. C., Some methods for studies of nicotinic acetylcholine receptor pharmacology, in Nicotinic receptors and the Nervous System, Levine, E. D., Ed. CRC Press: Boca Raton, 2002; pp 3-27, incorporated herein by reference in its entirety). Briefly, after aspiration of the bulk of ^86Rb^+ loading medium from each well of the “cell plate,” each well containing cells was rinsed 3× with 2 mL of fresh ^86Rb^+ efflux buffer (130 mM NaCl, 5.4 mM KCl, 2 mM CaCl2, 5 mM glucose, 50 mM HEPES, pH 7.4) to remove extracellular ^86Rb^+. Following removal of residual rinse buffer by aspiration, the flip-plate technique was used again to simultaneously introduce 1.5 mL of fresh efflux buffer containing drugs of choice at indicated final concentrations from a 24-well “efflux/drug plate” into the wells of the cell plate. After a 5 min incubation, the solution was “flipped” back into the efflux/drug plate, and any remaining buffer in the cell plate was removed by aspiration. Cells remaining in the cell plate were lysed and suspended by addition of 1.5 mL of 0.1 M NaOH, 0.1% sodium dodecyl sulfate to each well.
(§4) Similarly, the sum of ^86Rb^+ in cell plates and efflux/drug plates also determined the efficiency of ^86Rb^+ loading (the percentage of applied ^86Rb^+ actually loaded into cells).
(§5) Specific efflux was then taken as the difference in control samples between total and non-specific ^86Rb^+ efflux. Any intrinsic agonist activity of test drugs was ascertained using samples containing test drug only at different concentrations and was normalized, after subtraction of non-specific efflux, to specific efflux in test drug-free, control samples.

[2] = test system: Male Institute of Cancer Research (ICR) mice; test: Tail-flick test, blockade of nicotine-induced antinociception; assay type: in vivo; conditions: pretreatment 15 min before nicotine 2.5 mg/kg s.c., tested 5 min after nicotine
Source text: (§6) Animals: Male Institute of Cancer Research (ICR) mice (weighing 20-25 g) obtained from Harlan (Indianapolis, Ind.) were used throughout the study. Animals were housed in an Association for Assessment and Accreditation of Laboratory Animal Care-approved facility, were placed in groups of six, and had free access to food and water. Studies were approved by the Institutional Animal Care and Use Committee of Virginia Commonwealth University.
Tail-Flick Test: Antinociception for pain mediated at the spinal level was assessed by the tail-flick method of D'Amour, F. E.; Smith, D. L., J. Pharmacol. Exp. Ther. 1941, 72, 74-79, incorporated herein by reference in its entirety. In brief, mice were lightly restrained while a radiant heat source was shone onto the upper portion of the tail. To minimize tissue damage, a maximum latency of 10 s was imposed. Latency to remove the tail from the heat source was recorded for each animal. […] Antinociceptive response was calculated as the percentage of maximum possible effect (% MPE), where % MPE=[(test control)/(10 control)]×100.

[3] = test system: Male Institute of Cancer Research (ICR) mice; test: Body temperature, antagonism of nicotine-induced hypothermia; assay type: in vivo; conditions: pretreatment 15 min before nicotine 2.5 mg/kg s.c., tested 30 min after nicotine
Procedure: as §6
Body Temperature: Rectal temperature was measured by a thermistor probe (inserted 24 mm) and digital thermometer (YSI Inc., Yellow Springs, Ohio). Readings were taken just before and 30 min after subcutaneous injection of either saline or 2.5 mg/kg nicotine. The difference in rectal temperature before and after treatment was calculated for each mouse. The ambient temperature of the laboratory varied from 21 to 24° C. from day to day. […] The animals were then tested 30 min after administration of a subcutaneous dose of 2.5 mg/kg nicotine.

[4] = test system: Male Institute of Cancer Research (ICR) mice; test: Hot-plate test, blockade of nicotine-induced antinociception; assay type: in vivo; conditions: pretreatment 15 min before nicotine 2.5 mg/kg s.c., tested 5 min after nicotine
Source text: as §6
Hot-Plate Test: Mice were placed into a 10-cm wide glass cylinder on a hot plate (Thermojust Apparatus) maintained at 55° C. for assessment of pain responses mediated at supraspinal levels. To minimize tissue damage, a maximum exposure to the hot plate 40 s was imposed. Measures of control latencies (time until the animal jumped or licked its paws; typically 8-12 s) were done twice for stimuli applied at least 10 min apart for each mouse. Antinociceptive responses after test drug administrations were determined and calculated as the % MPE, where % MPE=[(test latency in s−control latency in s)/(40 s−control latency in s)×100]. Groups of 8 to 12 animals were used for each drug condition. […] The animals were then tested 5 min after administration of a subcutaneous dose of 2.5 mg/kg nicotine.

[5] = target: T2, NE transporters [h(NET)] (Homo sapiens, UniProt P23975); test: Inhibition of [3H]norepinephrine uptake into HEK293 cells stably expressing hNET; assay type: cell-based; conditions: ratio of uptake IC50 values
T2 construct: expressed in transfected cells; host or cells: HEK-293
T2 sequence (P23975 whole entry): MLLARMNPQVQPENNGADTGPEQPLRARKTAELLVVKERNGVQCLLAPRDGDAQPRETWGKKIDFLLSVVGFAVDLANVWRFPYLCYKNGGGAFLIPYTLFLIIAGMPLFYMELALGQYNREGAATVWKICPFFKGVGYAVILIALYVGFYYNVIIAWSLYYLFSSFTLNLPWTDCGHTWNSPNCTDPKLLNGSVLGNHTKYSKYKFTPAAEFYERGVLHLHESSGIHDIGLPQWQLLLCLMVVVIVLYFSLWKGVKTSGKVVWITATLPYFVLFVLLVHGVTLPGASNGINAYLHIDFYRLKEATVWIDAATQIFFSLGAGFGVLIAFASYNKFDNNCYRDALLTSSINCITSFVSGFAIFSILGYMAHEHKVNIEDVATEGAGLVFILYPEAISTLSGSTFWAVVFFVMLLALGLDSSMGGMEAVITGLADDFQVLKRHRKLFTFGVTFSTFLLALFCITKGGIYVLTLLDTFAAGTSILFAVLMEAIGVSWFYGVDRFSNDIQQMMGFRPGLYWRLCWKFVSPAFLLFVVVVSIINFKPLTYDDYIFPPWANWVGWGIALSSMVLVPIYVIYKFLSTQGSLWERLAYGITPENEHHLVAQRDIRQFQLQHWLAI
Source text: (§7) Cell Lines and Culture: Human embryonic kidney (HEK-293) cells stably expressing human DAT, NET or SERT were maintained as previously described in Eshleman, A. J.; Carmolli, M.; Cumbay, M.; Martens, C. R.; Neve, K. A.; Janowsky, A., J. Pharmacol. Exp. Ther. 1999, 289, (2), 877-885. Use was made of several human cell lines that naturally or heterologously express specific, functional, human nAChR subtypes. Cells of the TE671/RD line naturally expresses muscle-type nAChR (a1β1γδ- or α1*-nAChR), and SH-SY5Y neuroblastoma cells naturally expresses autonomic α3β4*-nAChRs (containing α3, β4, probably α5, and sometimes β2 subunits). Different clones of SH-EP1 epithelial cell lines have been engineered to heterologously express either α4β2-nAChR, which are thought to be the most abundant, high affinity nicotine-binding nAChR in mammalian brain, or α4β4-nAChR, another possible brain nAChR subtype (SH-EP1-hα4β2 or α4β4 cells, respectively). […]

[6] = target: T3, human DA transporters [(h)DAT] (Homo sapiens, UniProt Q01959); test: Inhibition of [3H]dopamine uptake into HEK293 cells stably expressing hDAT; assay type: cell-based; conditions: ratio of uptake IC50 values
T3 construct: expressed in transfected cells; host or cells: HEK-293
T3 sequence (Q01959 whole entry): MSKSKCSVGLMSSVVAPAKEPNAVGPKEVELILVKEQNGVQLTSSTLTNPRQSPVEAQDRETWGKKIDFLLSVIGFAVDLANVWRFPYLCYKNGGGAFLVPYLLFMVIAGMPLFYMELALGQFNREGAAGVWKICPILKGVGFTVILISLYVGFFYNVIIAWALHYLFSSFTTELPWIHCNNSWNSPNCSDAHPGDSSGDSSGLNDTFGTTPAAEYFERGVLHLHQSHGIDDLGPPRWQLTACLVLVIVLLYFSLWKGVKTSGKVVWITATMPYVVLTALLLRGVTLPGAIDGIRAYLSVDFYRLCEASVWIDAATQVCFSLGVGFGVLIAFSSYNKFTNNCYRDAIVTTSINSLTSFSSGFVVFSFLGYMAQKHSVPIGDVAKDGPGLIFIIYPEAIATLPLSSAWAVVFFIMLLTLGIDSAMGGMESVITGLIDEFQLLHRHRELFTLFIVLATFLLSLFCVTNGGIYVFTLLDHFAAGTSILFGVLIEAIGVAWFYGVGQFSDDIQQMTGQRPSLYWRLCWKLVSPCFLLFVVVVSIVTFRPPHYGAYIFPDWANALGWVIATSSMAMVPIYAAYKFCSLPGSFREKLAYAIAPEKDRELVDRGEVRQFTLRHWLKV
Source text: as §7

[7] = test system: α3β4*-nAChR; test: 86Rb+ efflux nAChR functional assay, SH-SY5Y cells; assay type: cell-based, human
Source text: as §1, §2, §3, §4, §5

`CC1NC(C)(C)COC1(O)c1cc(Cl)cc(Cl)c1` (racemic) [Compound 4p, 2-(3,5-Dichlorophenyl)-3,5,5-trimethylmorpholin-2-ol] was tested, and the IC50 [1] was 3.2 to 6.5 µM.
`C[C@@H]1NC(C)(C)CO[C@@]1(O)c1ccccc1` [Compound 4b, (2S,3S)-2-Phenyl-3,5,5-trimethylmorpholin-2-ol] showed an IC50 [1] of 8.5 to 8.9 µM.
With `C[C@@H]1NC(C)(C)CO[C@@]1(O)c1cccc(F)c1` [Compound 4c, (2S,3S)-2-(3-Fluorophenyl)-3,5,5-trimethylmorpholin-2-ol] the “AD50 Tail-flick” value [2] was 0.012 mg/kg and the “AD50 Hypothermia” value [3] was 4.4 mg/kg.
`C[C@@H]1NC(C)(C)CO[C@@]1(O)c1cccc(Br)c1` [Compound 4d, (2S,3S)-2-(3-Bromophenyl)-3,5,5-trimethylmorpholin-2-ol] was tested, and the IC50 [1] was 3.2 to 6.5 µM and the “AD50 Hot-plate” value [4] was 4.3 mg/kg.
In the case of `Cc1cccc([C@]2(O)OCC(C)(C)N[C@H]2C)c1` [Compound 4e, (2S,3S)-2-(m-Tolyl)-3,5,5-trimethylmorpholin-2-ol], the “AD50 Hypothermia” value [3] is reported as 2.3 mg/kg.
With `C[C@@H]1NC(C)(C)CO[C@@]1(O)c1ccc(F)cc1` [Compound 4h, (2S,3S)-2-(4-Fluorophenyl)-3,5,5-trimethylmorpholin-2-ol] the “AD50 Tail-flick” value [2] was 0.013 mg/kg.
For `C[C@@H]1NC(C)(C)CO[C@@]1(O)c1ccc(Cl)cc1` [Compound 4i, (2S,3S)-2-(4-Chlorophenyl)-3,5,5-trimethylmorpholin-2-ol], the IC50 [1] was 3.2 to 6.5 µM.
With `C[C@@H]1NC(C)(C)CO[C@@]1(O)c1cc(F)cc(F)c1` [Compound 4o, (2S,3S)-2-(3,5-Difluorophenyl)-3,5,5-trimethylmorpholin-2-ol] the “selectivity for inhibition of NE over DA uptake” value [5] was 7-8 fold.
Work on `C[C@@H]1NC(C)(C)CO[C@@]1(O)c1cccc2ccccc12` [Compound 4q, (2S,3S)-2-(Naphthalen-1-yl)-3,5,5-trimethylmorpholin-2-ol] yielded an IC50 [1] of 3.2 to 6.5 µM.
For `C[C@@H]1NC(C)(C)CO[C@@]1(O)c1ccc2ccccc2c1` [Compound 4r, (2S,3S)-2-(Naphthalen-2-yl)-3,5,5-trimethylmorpholin-2-ol], the “selectivity for inhibition of DA over NE uptake” value [6] was 3-5 fold and the “selectivity for α3β4*-nAChR over the other nAChR subtypes” value [7] was ≤ 4 fold.
In the case of `CC[C@@H]1NC(C)(C)CO[C@@]1(O)c1cccc(Cl)c1` [Compound 4s, (2S,3S)-2-(3-Chlorophenyl)-3-ethyl-5,5-dimethylmorpholin-2-ol], the IC50 [1] is reported as 3.2 to 6.5 µM and the “AD50 Hot-plate” value [4] is reported as 3.7 mg/kg.
With `CCC[C@@H]1NC(C)(C)CO[C@@]1(O)c1cccc(Cl)c1` [Compound 4t, (2S,3S)-2-(3-Chlorophenyl)-5,5-dimethyl-3-propyl-morpholin-2-ol] the IC50 [1] was 3.2 to 6.5 µM and the “selectivity for α3β4*-nAChR over the other nAChR subtypes” value [7] was ≤ 4 fold.
In the case of `C[C@@H]1N(C)C(C)(C)CO[C@@]1(O)c1ccc(Cl)cc1` [Compound 4v, (2S,3S)-2-(4-Chlorophenyl)-3,4,5,5-tetramethylmorpholin-2-ol], the IC50 [1] is reported as 3.2 to 6.5 µM.
